Assay results: PubChem BioAssay AID1030 (National Center for Advancing Translational Sciences (NCATS), 2008)
Among all 220,000 compounds or so, about 16,000 (7.3%) were called active. Inconclusive results, whose numbers are uncertain, are shown with a selection of clear calls. Calls follow the shape of the dose curve; as a rule, active = well fitted inhibition curve with a large enough effect (not every such curve was filed as active); inconclusive = small, poorly fitted or top-dose-only effect, or another doubt; inactive = no such curve, though single readings can be large or run the other way. Potencies of inconclusive entries are doubtful fits and often do not repeat.

The molecules below were run against Aldehyde dehydrogenase 1A1 (Homo sapiens) (UniProt P00352) (assay: qHTS Assay for Inhibitors of Aldehyde Dehydrogenase 1 (ALDH1A1)). Details: Purified ALDH1A1, NADH fluorescence, propionaldehyde substrate; series mostly up to 75.3 µM.
UniProt P00352, sequence (P00352 whole entry, looked up): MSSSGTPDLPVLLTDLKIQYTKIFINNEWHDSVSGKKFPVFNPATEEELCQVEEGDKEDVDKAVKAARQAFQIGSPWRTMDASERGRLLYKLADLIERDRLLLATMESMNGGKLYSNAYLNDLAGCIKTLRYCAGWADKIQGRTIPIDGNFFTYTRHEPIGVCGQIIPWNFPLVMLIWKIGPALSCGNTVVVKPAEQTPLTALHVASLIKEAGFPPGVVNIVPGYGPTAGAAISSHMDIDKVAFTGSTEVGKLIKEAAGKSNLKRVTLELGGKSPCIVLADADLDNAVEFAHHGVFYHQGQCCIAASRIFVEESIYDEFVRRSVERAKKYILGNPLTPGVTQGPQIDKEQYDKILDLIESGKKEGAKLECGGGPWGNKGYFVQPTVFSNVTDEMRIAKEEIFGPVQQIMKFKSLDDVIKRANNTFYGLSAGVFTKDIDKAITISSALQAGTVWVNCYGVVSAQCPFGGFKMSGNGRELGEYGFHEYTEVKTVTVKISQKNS

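For activity, negative = inhibition in this document: plate controls were no enzyme wells and a reference inhibitor.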
Potency is read from the fitted curve at half-maximal effect; tags tell the direction and shape of the fitted curve.

Potency, inactive:
COCCNC(=O)c1ccc2c(c1)nc(C)n2-c1cc(OC)c(OC)c(OC)c1
CCOc1cc(N2CCOCC2)c(OCC)cc1NC(=O)Cc1cccc2ccccc12
O=C([C@H](O)c1ccccc1)N1CCC[C@H]1CO
COCCCNCCCCOc1cccc(Br)c1
CC(=O)OCC(=O)[C@]1(O)C(C)CC2C3CCC4=CC(=O)C=C[C@@]4(C)[C@]3(F)C(O)C[C@@]21C (some centres undefined)
CCOC(=O)/C(=N/Nc1ccc(Cl)cc1)Sc1nnnn1-c1ccc(C)cc1
Cc1ccc(S(=O)(=O)N(CC2CO2)c2ccccc2[N+](=O)[O-])cc1 (centres undefined)
C=CCOc1c(Cl)cc(CNCCC)cc1Cl
CCOC(=O)c1cccc2c1-c1ccccc1/C2=N/O

Potency, inconclusive:
CSCCC1NC2(C(=O)Nc3c(C)cc(Cl)cc32)[C@@H]2C(=O)N(C3CCCC3)C(=O)[C@H]12 (some centres undefined) 25.1 µM [inhibitor, partial curve]
CCOc1ccccc1CNCCO 23.8 µM [inhibitor, partial curve, poor fit]
Cc1ccc(NC(=S)NCc2ccccc2)cc1S(=O)(=O)N1CCCCC1 17.8 µM [inhibitor, partial curve, poor fit]
CC1=CCC2(CO)COC(c3ccccc3O)C1C2 (centres undefined) 39.8 µM [inhibitor, single point]
COc1ccc(C(=O)Nc2ccc(Cl)cc2C(=O)NCc2ccco2)cc1 39.8 µM [inhibitor, single point]
O=c1c(-c2ccc(Cl)cc2)nc2cnc(N3CCOCC3)nc2n1C[C@H]1CCCO1 14.1 µM [inhibitor, partial curve]
O=C1C2Sc3[nH]c(=O)sc3C(c3ccccc3)C2C(=O)N1c1ccccc1 (centres undefined) 35.5 µM [inhibitor, single point]
COC(=O)c1ccc2nc(Nc3nc4c(F)cc(F)cc4s3)sc2c1 17.8 µM [inhibitor, partial curve]
COc1ccc2c(c1)Cc1sc(NC(=O)c3ccco3)nc1-2 22.4 µM [inhibitor, partial curve]
COc1ccc(CCNC(=O)CC2Nc3ccccc3NC2=O)cc1 (centres undefined) 20 µM [inhibitor, partial curve]
COCc1c(C(=O)N/N=C(/C)c2ccccc2)nnn1-c1nonc1N 0.891 µM [inhibitor, partial curve, poor fit]
Cc1ccc(-c2c(C#N)c(N)nc3c2CCCCC3)cc1 39.8 µM [inhibitor, single point]
Cc1ccccc1S(=O)(=O)Cc1ccc(C(=O)NCCCOC(C)C)o1 39.8 µM [inhibitor, single point]
CC1CCCCN1CC(=O)NC(c1ccccc1)c1ccccc1 (centres undefined) 22.4 µM [inhibitor, partial curve]
Cc1cccc(OCC(=O)N/N=C/C=C/c2ccco2)c1 17.8 µM [inhibitor, partial curve]
COC(=O)c1ccccc1NC(=O)CSc1nc(NC(=O)c2ccccc2)c2c(C)c(C)oc2n1 39.8 µM [inhibitor, single point]
COc1ccc(CN(CC(=O)NCc2ccco2)C(=O)CCC(=O)Nc2ccccn2)cc1 28.2 µM [inhibitor, single point]
O=C(O)/C=C\C(=O)Nc1ccc2c(c1)C(=O)c1cc(F)ccc1-2 3.55 µM [inhibitor, partial curve]
COc1ccccc1-c1nc(Nc2ccncc2)c2ccccc2n1 15 µM [inhibitor, partial curve]
COc1ccc(CN2CCN(CCCCOc3ccc(Cl)cc3)CC2)c(OC)c1OC 39.8 µM [inhibitor, single point]
Cc1nnc(SCCOc2ccccc2)s1 39.8 µM [inhibitor, single point]
COc1ccc(-c2cc3n(n2)CCc2nc4ccccc4n2-3)cc1 31.6 µM [inhibitor, single point]
CS(=O)(=O)Nc1ccc(C2=NN(S(C)(=O)=O)C(c3ccccc3)C2)cc1 (centres undefined) 7.08 µM [inhibitor, partial curve]
CCOC(=O)N1CCC(NC(=O)c2ccc3c(c2)N(Cc2ccc(F)cc2)CCS3)CC1 28.2 µM [inhibitor, partial curve]
COc1ccc(NC(C)(C)c2nnnn2-c2c(C)cccc2C)cc1 20 µM [inhibitor, partial curve]
Cc1ccc(NS(=O)(=O)c2cc(NC(=O)c3cc4c(s3)CCCC4)ccc2C)c(C)c1 39.8 µM [inhibitor, single point]
Cc1ccccc1-n1cc(CNCc2c(C(=O)N(C)C)nc3ccc(Cl)cn23)cn1 22.4 µM [inhibitor, single point]
CCCn1c(=O)c2c(C(F)(F)F)cc(-c3cccs3)nc2n(CCC)c1=O 7.08 µM [inhibitor, full curve]
CC1Cc2ccccc2N1C(=O)CSc1nc2c(c(=O)n(C)c(=O)n2C)n1Cc1ccccc1 (centres undefined) 39.8 µM [inhibitor, single point]

Potency, active:
COc1ccc(CN2CCN(C(=O)c3cccs3)CC2)c(OC)c1OC 17.8 µM
O=C(C[n+]1ccc(C(=O)N/N=C/c2ccc(O)cc2)cc1)c1ccccc1 1.58 µM
Cc1ccc(C(=O)/C=C/C(=O)O)cc1 0.447 µM
CC1CN(S(=O)(=O)c2cccc(C(=O)OCC(=O)Nc3ccc4c(c3)OCO4)c2)CC(C)O1 (centres undefined) 11.2 µM
CCN(CC)S(=O)(=O)c1ccc2c(c1)c(=O)c(C(=O)NCc1cccs1)cn2C 11.2 µM

activity, negative = inhibition, inactive:
CC(=O)Nc1nc2ncc(C=O)nc2c(=O)[nH]1 4.98% [at 13.5 µM]
